This experiment relates to NCI-H322M lung. The experiment is described as follows: NCI anticancer screen, dose series, 48 h.

Structures are written as SMILES.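 Growth conditions: 96-well plates. Treatment: test compound, 48 hours, 5 concentrations. Analysis: linear interpolation between bracketing concentrations; unreached endpoints set to highest concentration. Here, GI50 denotes the concentration required for 50% inhibition of growth. TGI marks complete inhibition of growth.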 Square brackets hold non-standard residues; d marks the D form. Peptide text beside a SMILES is read from it. Phe(4-NO2) = N[CH](Cc1ccc([N+](=O)[O-])cc1)C(=O)O

Regarding `C[C@H](C(O)CC(=O)C(C)(C)O)[C@H]1CC[C@@]2(C)[C@@H]3CC[C@H]4C(C)(C)[C@@H](OC5OC(COC6OC(CO)C(O)C(O)C6O)C(O)C(O)C5O)CC[C@]4(C)C3=CC[C@]12C` (some centres not stated), the TGI was > 100 µM.

In the case of `COc1ccccc1N1CCN(CCCOc2ccc(C(=O)/C=C3/C(=O)Nc4ccccc43)cc2)CC1`, the GI50 was 18.6 µM and the TGI is > 91 µM.

As for `Fc1ccc2c(c1)cc1ccc3cccc4ccc2c1c34`, the TGI was > 100 µM.

`COc1cc(=O)oc(/C=C/C=C/C=C/C(C)=C\C2(C)OC(C)C(C)(O)C2O)c1C` (configuration not stated): the TGI was > 100 µM.

`N#Cc1c2ccc([N+](=O)[O-])cc2c(=O)n2c1sc1ccccc12` returned a TGI of 61.1 µM.

As to `COc1ccc(OCC(C)(C)O)cc1`, the TGI was > 100 µM.

Regarding `CC(CCC(=O)O)c1ccc(Br)cc1` (configuration not stated), the TGI is > 100 µM.

With `CC(C)c1cc(C(=O)[O-])c(O)c(C(C)C)c1.CC(C)c1cc(C(=O)[O-])c(O)c(C(C)C)c1.CC(C)c1cc(C(=O)[O-])c(O)c(C(C)C)c1.CC(C)c1cc(C(=O)[O-])c(O)c(C(C)C)c1.CC(C)c1cc(C(=O)[O-])c(O)c(C(C)C)c1.CC(C)c1cc(C(=O)[O-])c(O)c(C(C)C)c1.[Cu+2].[Mn+2].[Mn+2]`, the GI50 was 22.8 µM and the TGI came out at 49.2 µM.

On to `C=C1C(=O)O[C@H]2[C@H]1CC/C(Cn1cc(-c3ccsc3)nn1)=C\CC[C@@]1(C)O[C@@H]21`, for which the GI50 was 10.5 µM and the TGI was 22.7 µM.

Regarding `CSC1SCC2C(=O)N(C)C(C(C)C)C(=O)OCC(NC(=O)c3cnc4ccccc4n3)C(=O)NC(C)C(=O)N(C)C1C(=O)N(C)C(C(C)C)C(=O)OCC(NC(=O)c1cnc3ccccc3n1)C(=O)NC(C)C(=O)N2C` (configuration not stated), the GI50 is < 0.001 µM.

On to `COc1ccc2c(c1)OC1c3ccccc3OCC21` (configuration not stated), for which the TGI is > 100 µM.

For `N#CC(C(=O)O)C(c1c(Cl)cccc1Cl)C(C#N)C(=O)O` (configuration not stated), the TGI is > 100 µM.

With `COc1ccc(NC(=O)CC(=O)N2N=C(C)C(N=Nc3ccc(C(=O)O)cc3)C2=O)cc1` (configuration not stated), the TGI is > 100 µM.

Turning to `Cc1ccc(-n2c3c(c4c(CN)c(O)ccc42)CCc2ccccc2C3=O)cc1`, the GI50 was 16.7 µM and the TGI is 30.7 µM.

On to `Cn1cc2ccccc2c1-c1nc(F)nc(Nc2ccc(N)cc2)n1`, for which the TGI was > 100 µM.

With `C/C(=N\NS(=O)(=O)c1c(C)cc(C)cc1C)c1ccc[n+]([O-])n1`, the TGI is > 100 µM.

For the molecule `Nc1nc(Cc2ccccc2)nc(Cc2ccccc2)c1-c1ccccc1`, the TGI was > 100 µM.

Consider `NS(=O)(=O)c1nnc(NC(=O)/C=C/C(=O)O)s1`, for which the TGI is > 100 µM.

As for `Cn1c(O)c(C=Nc2ccc(Cl)cc2Cl)c(=O)n(C)c1=O`, the TGI is > 100 µM.

As for `COc1ccc(NC(=S)Nc2c(C)n(C)n(-c3ccccc3)c2=O)cc1`, the TGI was > 100 µM.

With `CC(C)=CCC/C(C)=C/CC/C(C)=C/C1CCC(=O)C1(C)C` (configuration not stated), the TGI was > 100 µM.

Regarding `COCC(=O)NC/C=C/c1ccc2ncnc(Nc3ccc(Oc4ccc(C)nc4)c(C)c3)c2c1`, the GI50 is 15.9 µM and the TGI was > 71.2 µM.

Regarding `COC(=O)CCC(NC(=O)C(CCC(=O)OC)NC(=O)C(CCC(=O)OC)NC(=O)C(CCC(=O)OC)NC(=O)C(CCC(=O)OC)NC(=O)C(Cc1ccc([N+](=O)[O-])cc1)NC(=O)C(CCC(=O)OC)NC(=O)C(CCC(=O)OC)NC(=O)C(CCC(=O)OC)NC(=O)C(CCC(=O)OC)NC(=O)C(CCC(=O)OC)NC(C)=O)C(N)=O` (configuration not stated) (Ac-E(OMe)E(OMe)E(OMe)E(OMe)E(OMe)[Phe(4-NO2)]E(OMe)E(OMe)E(OMe)E(OMe)E(OMe)-NH2; configuration not given here), the TGI was > 100 µM.

For `CCCCN1CCC(O)(c2cc(C(=O)O)[nH]c2-c2cc(C)no2)C1=O` (configuration not stated), the TGI was > 100 µM.

`CCCC(=O)Nc1c(I)cc(I)c(CC(CC)C(=O)O)c1I` (configuration not stated): the GI50 is > 100 µM and the TGI was > 100 µM.

As for `O=C1CCC(N2C(=O)c3cccc(NCCOCCOCCNC(=O)c4cc5c(o4)C(=O)c4ccccc4C5=O)c3C2=O)C(=O)N1` (configuration not stated), the GI50 was 1.81 µM and the TGI was determined as 3.28 µM.

`CC(C)Cc1ccc(C(C)/C=C2\CCC(CN3CCCCC3)C2=O)cc1` (configuration not stated) registered a TGI of 27.7 µM.

For the molecule `CN=C(N)NC`, the TGI is > 100 µM.

`C[C@]12CC/C(=N\O)C=C1CC[C@@H]1[C@@H]2CC[C@]2(C)C(=N/O)/C(=C/c3ccncc3)C[C@@H]12` had a TGI of 77.1 µM.

`O=C1NC(N2CCCCC2)=N/C1=C\c1ccccc1`: the TGI is > 100 µM.

The values are drawn from PubChem BioAssay (NCI).
